The campaign covered roughly 270,000 compounds. About 5,800 (2.1%) were called active. This list was built around the results that the source calls inconclusive (neither active nor inactive); the mix of calls is not that of the screen. Calls follow the shape of the dose curve; as a rule, active = well fitted inhibition curve with a large enough effect; inconclusive = small, poorly fitted or top-dose-only effect; inactive = flat fitted curve, though single readings scatter. Where the call is inconclusive, the potency comes from a doubtful curve fit.
What follows are compounds tested against Microtubule-associated protein tau (Homo sapiens) (UniProt P10636) (assay: qHTS for Inhibitors of Tau Fibril Formation, Thioflavin T Binding). Conditions: recombinant tau K18 P301L (four-repeat tau fragment), heparin-induced fibrillization, ThT fluorescence; series mostly up to 57.4 µM; activity, negative = inhibition: at the top concentration.
How it was run: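 Recombinant human tau K18 fragment […] carrying P301L, 15 uM unlabeled plus 0.24 uM Alexa 594-labeled, was fibrillized with 20 uM heparin in 100 mM sodium acetate pH 7 for 6 hr at 37 C; 30 uM ThT fluorescence read after 1 hr.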
% is scaled to controls: 0 for no effect and ±100 for the full control effect; potency is read from the fitted curve at half-maximal effect; tags tell the direction and shape of the fitted curve.
Also: nearly all actives have a fitted effect of over 55% in size.

Sequence of UniProt P10636 (P10636 whole entry, looked up, the tested form may be a part): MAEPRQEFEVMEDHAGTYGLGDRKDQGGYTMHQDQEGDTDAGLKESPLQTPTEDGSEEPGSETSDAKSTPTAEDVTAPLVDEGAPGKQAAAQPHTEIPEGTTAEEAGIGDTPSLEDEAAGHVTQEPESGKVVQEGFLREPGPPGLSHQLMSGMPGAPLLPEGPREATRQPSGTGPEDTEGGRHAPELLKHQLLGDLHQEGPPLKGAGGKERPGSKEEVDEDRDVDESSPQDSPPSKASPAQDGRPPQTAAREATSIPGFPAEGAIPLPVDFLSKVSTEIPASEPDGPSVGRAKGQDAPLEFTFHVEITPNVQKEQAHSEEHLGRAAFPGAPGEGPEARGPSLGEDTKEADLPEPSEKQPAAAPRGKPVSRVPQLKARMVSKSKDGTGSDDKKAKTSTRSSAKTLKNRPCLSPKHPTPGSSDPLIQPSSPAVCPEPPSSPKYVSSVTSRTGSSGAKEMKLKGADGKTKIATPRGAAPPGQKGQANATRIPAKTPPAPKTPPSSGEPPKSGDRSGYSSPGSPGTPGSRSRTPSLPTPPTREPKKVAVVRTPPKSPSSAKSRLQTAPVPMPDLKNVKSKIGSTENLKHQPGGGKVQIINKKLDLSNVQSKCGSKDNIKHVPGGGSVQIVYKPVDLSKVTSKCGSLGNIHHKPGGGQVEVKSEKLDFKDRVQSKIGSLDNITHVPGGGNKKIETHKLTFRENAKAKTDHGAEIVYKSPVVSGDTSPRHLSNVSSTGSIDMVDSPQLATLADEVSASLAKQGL

Q: With `Cc1cc(C)cc(NS(=O)(=O)c2ccc3[nH]cc(C(=O)N4CCCC4)c(=O)c3c2)c1` as the compound, how does the “activity, negative = inhibition” value read?
A: inactive: -1.76%

Q: How did the Potency turn out when `CC(C)CC(NS(=O)(=O)c1ccc2c(c1)oc(=O)n2C)C(=O)NCCc1ccc(Cl)cc1` (stereo not drawn) was run?
A: inconclusive: 2.82 µM [activator, full curve, poor fit]

Q: For `COC(=O)c1ccc(NC(=O)c2cc(S(=O)(=O)N3CCc4ccccc43)cn2C)cc1`, which Potency is on record?
A: inconclusive: 8.91 µM [inhibitor, partial curve, poor fit]

Q: For `O=C(CSc1cn(CCNC(=O)c2c(F)cccc2F)c2ccccc12)Nc1ccc2c(c1)OCCO2`, which “activity, negative = inhibition” value is on record?
A: inactive: -9.5%

Q: For `CCOC(=O)c1sc(NC(=O)CSC(=S)N2CCN(C)CC2)nc1C`, which “activity, negative = inhibition” value is on record?
A: inactive: 1.23%

Q: With `Cc1cc[n+](-c2[nH]c(=O)sc2/C=N/NC([S-])=Nc2ccccc2)cc1C` as the compound, how does the Potency read?
A: inconclusive: 17.8 µM [inhibitor, partial curve]

Q: How did the Potency turn out when `O=C1CC(c2ccccc2C(F)(F)F)c2c(c3ccccc3[nH]c2=O)O1` (stereo not drawn) was run?
A: inconclusive: 8.91 µM [inhibitor, single point]

Q: Which Potency does the source give for `N#Cc1c(NC(=O)c2cc3nc(-c4ccc(Br)cc4)cc(C(F)(F)F)n3n2)sc2c1CCCC2` here?
A: inconclusive: 25.1 µM [inhibitor, single point]

Q: For `O=C(COC(=O)C1CC1)Nc1ccc(N=Nc2ccccc2)cc1`, which Potency is on record?
A: inconclusive: 3.16 µM [inhibitor, full curve]

Q: How did the Potency turn out when `CC(C)(C)OC(=O)NCCc1nnc(S(=O)(=O)Cc2ccc(Cl)cc2Cl)o1` was run?
A: inconclusive: 1.58 µM [inhibitor, full curve]

Q: Which Potency does the source give for `Cc1nc(C)c(C(=O)N/N=C/c2c[nH]c3ccccc23)s1` here?
A: inconclusive: 11.2 µM [inhibitor, partial curve]

Q: `O=C(c1ccco1)[C@@H]1[C@@H]2C(=O)N(c3ccc(Br)cc3)C(=O)[C@@H]2C2c3ccccc3C=CN21` (stereo partly drawn) was tested. Which Potency did it give?
A: active: 20 µM

Q: For `O=C(O)c1cc([N+](=O)[O-])cc2c1nnn2O`, which Potency is on record?
A: inconclusive: 25.1 µM [inhibitor, partial curve]

Q: `CCCN1C=CC(=C2C(=O)c3ccccc3C2=O)C=C1` was tested. Which Potency did it give?
A: inconclusive: 14.1 µM [inhibitor, partial curve]

Q: For `CN(C)c1ccc(/C=N/NC(=O)CSc2ccccn2)cc1`, which Potency is on record?
A: inconclusive: 14.1 µM [inhibitor, partial curve]

Q: For `COC(=O)NC(/C(C(=O)OC)=C(\C)NCc1ccccc1)c1cccs1` (stereo not drawn), which activity, negative = inhibition is on record?
A: inactive: -10.8% [at 11.5 µM]

Q: For `Cc1oc(-c2ccc(Cl)cc2)nc1CS(=O)CC(=O)NCc1ccc(Cl)cc1` (stereo not drawn), which “activity, negative = inhibition” value is on record?
A: inactive: -7.03%

Q: `CCn1c(-c2cc(OC)ccc2OC)csc1=Nc1c(C)n(C)n(-c2ccccc2)c1=O` was tested. Which “activity, negative = inhibition” value did it give?
A: inactive: -0.49%

Q: With `COC(CNC(=O)c1ccc(N2CCc3ccccc32)c([N+](=O)[O-])c1)OC` as the compound, how does the Potency read?
A: inconclusive: 25.1 µM [inhibitor, partial curve]

Q: With `COc1cccc(C(=O)Nc2ccccc2OCc2cc(=O)n3cc(C)ccc3n2)c1` as the compound, how does the “activity, negative = inhibition” value read?
A: inactive: 0.123%

Q: With `CCN(CC)c1ccc(NC(=O)COC(=O)c2cccs2)cc1` as the compound, how does the “activity, negative = inhibition” value read?
A: inactive: -15%

Q: For `Cc1cc(C(=O)CSc2nnc(-c3ccc(Cl)cc3)n2CC2CCCO2)c(C)n1C` (stereo not drawn), which Potency is on record?
A: inconclusive: 22.4 µM [inhibitor, partial curve]

Q: How did the “activity, negative = inhibition” value turn out when `COc1cc(-c2nnc(SCC(=O)Nc3ccc(F)c(Cl)c3)o2)cc(OC)c1OC` was run?
A: inactive: -9.78%

Q: Which Potency does the source give for `Cc1[nH][nH]c(=O)c1C(c1ccc(N(C)C)c(Br)c1)c1c(C)[nH][nH]c1=O` here?
A: inconclusive: 20 µM [inhibitor, partial curve, poor fit]

Q: For `CC(C)N(Cc1ccccc1)C(=O)CCS(=O)(=O)c1cc2c(cc1Cl)NC(=O)CO2`, which “activity, negative = inhibition” value is on record?
A: inactive: -6.82%

Q: How did the Potency turn out when `Cc1ccc2nc(-c3ccc(O)cc3)c(Nc3ccc4c(c3)OCO4)n2c1` was run?
A: inconclusive: 17.8 µM [inhibitor, partial curve]

Q: With `O=C1C(Cl)=C(N2CCN(Cc3ccccc3)CC2)C(=O)N1c1ccccc1` as the compound, how does the Potency read?
A: active: 15.8 µM

Q: `COCCn1c(C)cc(O)c(C(c2ccccc2)N2CCN(C)CC2)c1=O` (stereo not drawn) was tested. Which Potency did it give?
A: inconclusive: 15.8 µM [inhibitor, partial curve]

Q: For `COC(=O)\C(C(C)=O)=C(/C=C/C=C/C=C/N(C)C)N(C)C`, which Potency is on record?
A: active: 15.8 µM

Q: `O=c1[nH]c(N/N=C/c2ccccc2)nc2ccccc12` was tested. Which Potency did it give?
A: inconclusive: 3.16 µM [inhibitor, full curve]

Q: For `COc1ccc2c(c1)CCc1c(C(=O)Nc3cc(C)ccc3O)noc1-2`, which Potency is on record?
A: inconclusive: 0.398 µM [inhibitor, full curve]

Q: Which “activity, negative = inhibition” value does the source give for `CCOC(=O)c1c(NC(=O)C2=C(C)NC(=S)NC2c2ccc(F)cc2F)sc(C)c1C` (stereo not drawn) here?
A: inactive: -12%

Q: How did the Potency turn out when `Cc1ccc(-c2n[nH]c(=S)n2/N=C/c2cc3c(cc2[N+](=O)[O-])OCO3)cc1` was run?
A: inconclusive: 4.47 µM [inhibitor, partial curve]

Q: For `O=c1c(-c2n[nH]c(=S)n2-c2ccccc2)cccn1Cc1cccc(Cl)c1`, which “activity, negative = inhibition” value is on record?
A: inactive: 8.62%

Q: `O=C(O)C1CSC(c2ccc3c(c2)OCO3)N1` (stereo not drawn) was tested. Which Potency did it give?
A: inconclusive: 15.8 µM [inhibitor, partial curve]

Q: `CCOc1ccc(NC(=O)C2Cc3ccccc3N2C(=O)c2ccccc2)cc1` (stereo not drawn) was tested. Which “activity, negative = inhibition” value did it give?
A: inactive: -1.93%

Q: `CCOC(=O)c1cnc(SC2CCc3ccccc3C2=O)nc1N` (stereo not drawn) was tested. Which Potency did it give?
A: active: 28.2 µM

Q: `O=C(NC1=NCCS1)c1sc2cc(Cl)cc(Cl)c2c1Cl` was tested. Which Potency did it give?
A: inconclusive: 3.98 µM [inhibitor, full curve, poor fit]

Q: How did the Potency turn out when `CN(C)S(=O)(=O)NCCNc1ccc(C(F)(F)F)cc1[N+](=O)[O-]` was run?
A: inconclusive: 22.4 µM [inhibitor, single point]

Q: How did the Potency turn out when `COc1cccc(N2C(=O)CC(c3c[nH]c4ccccc34)C2=O)c1` (stereo not drawn) was run?
A: inconclusive: 25.1 µM [inhibitor, single point]

Q: With `CC12CCCCN1CCCc1c2[nH]c2ccccc12` (stereo not drawn) as the compound, how does the Potency read?
A: inconclusive: 28.2 µM [inhibitor, single point]

Q: With `COC(=O)c1cccc(Nc2c(-c3ccc(O)c(OC)c3)nc3nc[nH]n23)c1` as the compound, how does the Potency read?
A: inconclusive: 35.5 µM [inhibitor, single point]

Q: Which Potency does the source give for `CCOc1nc(-c2ccccc2)ccc1-c1noc(COC)n1` here?
A: inconclusive: 39.8 µM [inhibitor, single point]

Q: Which Potency does the source give for `CC(C)CN1CCc2nc(N3CCN(c4ncccn4)CC3)ncc2C1` here?
A: inconclusive: 1 µM [inhibitor, partial curve, poor fit]

Q: With `COCCN(CC(=O)NC1CCCCC1)C(=O)CSc1nc2ccccc2o1` as the compound, how does the “activity, negative = inhibition” value read?
A: inactive: 1.53%

Q: `CCOC(=O)c1c(C)[nH]c2cc(Br)c(O)cc12` was tested. Which Potency did it give?
A: inconclusive: 15.8 µM [inhibitor, partial curve]

Q: Which Potency does the source give for `CCN1C(=O)c2cccc3c(NC(=O)c4cccc(N5C(=O)CCC5=O)c4)ccc1c23` here?
A: inconclusive: 20 µM [inhibitor, single point]

Q: With `CCOc1cc(/C=N/NC(=O)CN(CCc2ccccc2)S(=O)(=O)c2ccc(NC(C)=O)cc2)ccc1O` as the compound, how does the Potency read?
A: inconclusive: 39.8 µM [inhibitor, single point]

Q: Which “activity, negative = inhibition” value does the source give for `CC(Oc1cccc(F)c1)c1ccnc2nc(/N=C/N(C)C)nn12` (stereo not drawn) here?
A: inactive: -2.91%

Q: Which Potency does the source give for `CCOc1ccc(CNc2ccc3c(c2)ncn3C)cc1` here?
A: inconclusive: 15.8 µM [inhibitor, partial curve]

Q: `OC[C@@H](O)[C@@H](O)CCc1ccccc1` was tested. Which “activity, negative = inhibition” value did it give?
A: inactive: -7.44%

Q: With `O=S(=O)(Nc1ccc(S(=O)(=O)Nc2nccs2)cc1)c1ccc2c(c1)OCCO2` as the compound, how does the “activity, negative = inhibition” value read?
A: inactive: -8.81%

Q: Which “activity, negative = inhibition” value does the source give for `CCn1nnnc1SCC(=O)c1cc(Cl)ccc1OC` here?
A: inactive: -6.55%

Q: For `O=C(NCc1ccccn1)c1ccc2nc(-c3ccco3)c(-c3ccco3)nc2c1`, which Potency is on record?
A: active: 12.6 µM

Q: `CCc1ccc2oc(-c3cc(N)ccc3O)nc2c1` was tested. Which Potency did it give?
A: inconclusive: 15.8 µM [inhibitor, partial curve]

Q: For `COc1cc(Br)c(/C=C(\C#N)c2nc3ccccc3[nH]2)cc1OC`, which Potency is on record?
A: inconclusive: 1.41 µM [inhibitor, partial curve, poor fit]

Q: How did the Potency turn out when `COc1cccc(-c2cc(=O)c3cc(NC(=O)c4ccc(Cl)cc4)ccc3[nH]2)c1` was run?
A: inconclusive: 0.794 µM [inhibitor, full curve]

Q: Which “activity, negative = inhibition” value does the source give for `CCc1nn(CC(=O)N2CCCCC2)c(=O)c2cc3sccc3n12` here?
A: inactive: -14.6%

Q: For `Cc1cc(=O)oc(C)c1C(=O)OCC(=O)c1ccc(Cl)cc1`, which Potency is on record?
A: inconclusive: 15.8 µM [inhibitor, partial curve]

Q: For `Cc1nn(-c2ccccc2)c(Cl)c1/C=C(\C#N)C(=O)NC(C)C`, which Potency is on record?
A: inconclusive: 17.8 µM [inhibitor, single point]

Q: With `Cc1ccc(C)c(N2CCN(CCCNC(=O)Nc3cc(Cl)ccc3C)CC2)c1` as the compound, how does the Potency read?
A: inconclusive: 20 µM [inhibitor, partial curve, poor fit]

Q: For `O=C(N/N=C/c1cc([N+](=O)[O-])ccc1O)c1cc(-c2ccccc2)nc2ccccc12`, which Potency is on record?
A: inconclusive: 6.31 µM [inhibitor, partial curve]

Q: Which Potency does the source give for `CC1CCCN(Cc2c(O)ccc3c(=O)c(-c4nc5ccccc5s4)c(N)oc23)C1` (stereo not drawn) here?
A: inconclusive: 17.8 µM [inhibitor, single point]

Q: With `COc1ccc(-c2nc(C)c(CCNC(=O)Cc3ccc(F)cc3)s2)cc1OC` as the compound, how does the Potency read?
A: inconclusive: 15.8 µM [inhibitor, single point]

Q: `Cc1nnc(NC(=O)CSc2ncc(-c3ccccc3)[nH]2)s1` was tested. Which Potency did it give?
A: inconclusive: 14.1 µM [inhibitor, single point]

Q: Which Potency does the source give for `CCc1ccc(NC(=O)C2CCN(C(=O)N3CC(CC)Oc4ccccc43)CC2)cc1` (stereo not drawn) here?
A: inconclusive: 7.94 µM [inhibitor, partial curve]

Q: Which Potency does the source give for `O=C1c2ccccc2C2=Nc3ccccc3SC(c3ccc(Cl)cc3)C12` (stereo not drawn) here?
A: inconclusive: 12.6 µM [inhibitor, partial curve]

Q: For `CCCCC(=O)Nc1ccc(NC(=O)c2ccc3c(c2)OCO3)cc1OC`, which Potency is on record?
A: inconclusive: 17.8 µM [inhibitor, partial curve]

From PubChem BioAssay AID1460 (National Center for Advancing Translational Sciences (NCATS), 2008)
